From the RNAGym collection of RNA variant scans (doi:10.7554/elife.90254)
The source gives no read counts; variants with many changes may rest on few reads.

B1: LINE1-mini (parent)
chain: GGCAGAGCUCAACACAGCGUGGCAAAGUGGCUGUGGCUAGACUGCC

Variants of: B1
Experiment: self-cleavage, relative activity (ratio to wild type); higher = more cleavage; in vitro, sequencing; the parent is a self-cleaving ribozyme

Variant	self-cleavage
A12C A16G U28A C42G	0.03
C8A G19U G33A	0.37
C8A C18G G22U	0.18
A12U G19C G35A C37A	0
C3U C8U A26C U28G	0.02
G1C G30A A39C	0.02
G7U G21C A24U	0.07
G2C C10U C13G A24U A26C	0.03
A26C G27U C37U C46G	0
C13G C37A G44U	0
A4G A24G G44A C45A	0.47
U9C G17U C23G	0.07
C3G A4C A41C	0.15
G1C A16G G17A U20C U28C	0.15
C3A A24U G40A A41C	0.14
G17C G29C C46U	0.2
C10U G29U C37A	0.01
C10U C15U G17U G30C C45U	0.06
A11G A26G G44U	0.01
C13U G21U G40C G44U	0.06
G1A U9G A16U C18U G22C U34C	0.05
G1U A12U C13U G21U A26U C31U C37A U38C	0.01
G1C C10A U20C G27U A41C	0.02
A12U U20A G21A U32G U43A	0.02

Variant	self-cleavage
G5U G19A C45U	0.13
G5U C8U G29U	0.36
U38G G40U G44A C46U	0.13
C37A C45A C46U	0.04
U9A A11U A16U U20C G22A	0.02
C23U U28C C37A C45G	0.1
A11C G17C A26G	0.01
A24G U32G G33U C46U	0.04
C10A G27C G29U U43A	0.02
U20C C23A G30A	0.05
G1A G17U C37A U38A	0.02
G29A C37U A39G C42A	0.03
G1C C8G A14U	0
U9A A14U G22U C45U	0.27
G36C A41C G44U	0.03
C3A C15A C23U U28C U43C	0.04
A14G G21U U28G U38A	0.12
C15A G17U C18A G19U C37U	0.09
G2U G17A G22C	0.06
G7C C10U G36A A41G	0.02
G2C G5C G29U C45U	0.04
U20A C31U U32C	0.21
G2A G21U G30A C46U	1.35
G21A C37G C46A	0.03

Variant	self-cleavage
C10A G27U C37A G40A	0.01
A6G A41C U43C	0.03
A12C C23U G30C C46G	0.01
A4G C10U G36U	0.06
A11U C15A G19U U32C	0.01
G1A A4C U9A U20A A24U C37A G44C	0.03
C15G A16G A24C	0.01
G7U G19U U32C U43G	0.04
C3A G22C C46A	0.16
C10U G36C C45U	0.02
C18G G30U U34A	0.03
A24C U28A C37U	0.04
A12G C31A U38A	0.03
C3G C13G G19U A24C G33U G40C C46A	0.03
G17U U38G A41G	0.01
G2A C10G G33A A39G A41G	0.01
G2C C15G C23U A26G C42G	0
G21A A26G C42G	0.04
C10A A14C G19U A26U	0.01
U9G A39C C46U	0.02
A4C A6G G40U C46G	0.22
G7U A11C C13G A24U A26G G33U	0.01
G7U G19U G22C G35A	0.08
A11C A16U G19C G30A	0.01

Variant	self-cleavage
G5U U28A C37A	0.04
A14U A16C G19A	0.1
C8A G22U U38A C46U	0.11
G22A G36A C45A	0.07
G7A U28G A41G	0.05
G5A G29U U43A	0.01
C10A G17U A26C G29U	0.09
G1U G5U C23G U32C C42A G44A C45U C46U	0.01
G7U C15U G19U G44C	0.17
C8G G21U U28G	0.05
U32A C37A A39U	0.04
A6C C13G G44U	0.06
G5A U32C U34A G44U	0.04
G5U A11G G29C C31G G35A	0
G2A C18U C37A	0.87
A4U C15G C18U G21A A24C G27U G36A	0
A6U U20A A25C G27U G29U G40C	0.02
G2C A6G A12G U38A A39G	0.03
C13A C18U G21C G33C C37A	0.05
G1U C10U U32G	0.02
G2C C8U G21A G40A	0.2
G2C C10A A24C G30C A41U C45U	0.01
C13A C31A G40A	0.07
G19A G30A G40U	0.17

Variant	self-cleavage
G5A C37A A39G	0.06
G30U U32A G33A C46A	0.03
C13U G27A G30U	0.15
C18A C31A C46U	0.06
G5C U20G A41U	0.01
G19A G33C U34C C42U	0.09
C15A C18G G22C C42G	0.05
A11U A14C U34A	0.01
G19U G22A G29U G44A	0.2
G7U G22A A26G G29U G35A G40C	0.45
G30U U38C U43G	0.49
A6U A11U G21C C45U	0.11
G1U C10U A12G C46U	0.01
G1U A26U G33C	0.04
G5U U20G G29A C31A	0.03
A4G A25U G33A G36U	0.08
C15A C37U G40U	0.1
G19A G21A A25G G27A G30A C31U C46A	0.88
A25C U32C C45G	0.02
C31G G36U G40A	0.02
A4G G5A C8U U34C C42A	0.15
C13U C15U U34G G36A	0.09
A6C G17U C23A	0.11
G19C A24U A26C G35A	0.02

Variant	self-cleavage
G7A A26U U34C G35U	0.14
C15G G19A G33C	1.55
C13U G30A A41U C45A	0.04
A11U A24U A26G G27A G40A G44U	0.01
G2C A24U G33C	0.08
G2A G5U C13G G19U G22A U32A C46U	0.06
G1C C23A G36U A39G	0.04
C15G C18G G19U G21U G27U G40C	0
C18G U43C G44U	0
G1C C13U G21A G30C G40A	0.01
G2U U9A G19A	0.17
A4U A11C A12U G44U	0.05
C3G A6G U28G G40U A41U	0.1
U9C C10A A12G G27A	0.04
C3G C13A C15G G44A	0.02
C10A C18U G33C	0
C13A A16U C45G C46A	0.07
G22A C31A A39G	0.04
C3A U28A G44C C45U C46U	0.05
G1C G7U G19U U32C	0.04
C10U A12G A16U G21U C45A	0.03
C3A A12G A24G A41G U43G	0.04
G7U C15G A24U A26U	0.07
C10A G17A G27U	0.06

Variant	self-cleavage
C15A G19A U28A	0.03
G7A A12U C13A G35U	0.22
G5A A6U A11U A16G U32A A39C	0.01
G1A A26U U28C	0.1
G1C U9A G30A G36A U43A	0.01
A11C C15U G33A G36A G44A C45A	0
G5U C13U G19C A25U	0.07
C18U U32A G33C	0.04
U9G A12C A25G A26C C37U	0
G7U A12G G27U	0.01
G1C C10A A16G G33U	0
A11C A12C C18U G27A C45A	0.03
A12U C13U G27U A41U	0.09
C3G U20G U28A C31U	0.16
C10A U20C G44C	0.1
G7U A11U A12U C13A C31G G40A C45A	0
C8G A14U G22U A24C G30C G33A	0
G7U U20A C42U	0.02
C15U G17U U38C	0.06
G5U C15U C18A C37U	0.02
C8G G27A U28G G33U C37G	0.06
G19A G21U G29U	0.67
G7A G17C G22U C46U	0.19
